# According to the supplement of paper PMC8728848:
# The list shows a part of the results.
# B1: ECA (Erythrina cristagalli), P83410 (protein)
# chain: VETISFSFSEFEPGNDNLTLQGAALITQSGVLQLTKINQNGMPAWDSTGRTLYTKPVHMWDSTTGTVASFETRFSFSIEQPYTRPLPADGLVFFMGPTKSKPAQGYGYLGVFNNSKQDNSYQTLAVEFDTFSNPWDPPQVPHIGIDVNSIRSIKTQPFQLDNGQVANVVIKYDAPSKILHVVLVYPSSGAIYTIAEIVDVKQVLPDWVDVGLSGATGAQRDAAETHDVYSWSFQASLPE
# Legend:
# Assay in all cases: glycan array binding signal (z-score within array); higher = stronger binding
# Conditions in all cases: glycan notation: IUPAC condensed, linker removed
# [1] = molecular target: Fuc(a1-2)Gal
# How it was run: (§1)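 Glycan array data were curated from 3228 arrays in the Consortium for Functional Glycomics database and kept only where the protein sequence was available. Glycan names were converted to IUPAC-condensed notation, and columns mapping to the same glycan were averaged. The binding signal is a within-array Z-score, averaged across arrays of the same protein sequence at different concentrations or buffers and across linkers. Negative Z-scores can be read as non-binding.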
# [2] = molecular target: Fuc(a1-2)Gal(b1-3)GalNAc
# How it was run: as §1
# [3] = molecular target: Fuc(a1-2)Gal(b1-3)GalNAc(a1-3)[Fuc(a1-2)]Gal(b1-4)Glc
# How it was run: as §1
# [4] = molecular target: Fuc(a1-2)Gal(b1-3)GalNAc(a1-3)[Fuc(a1-2)]Gal(b1-4)GlcNAc
# How it was run: as §1
# [5] = molecular target: Fuc(a1-2)Gal(b1-3)GalNAc(b1-3)Gal
# How it was run: as §1
# [6] = molecular target: Fuc(a1-2)Gal(b1-3)GalNAc(b1-3)Gal(a1-4)Gal(b1-4)Glc
# How it was run: as §1
# [7] = molecular target: Fuc(a1-2)Gal(b1-3)GalNAc(b1-4)[Neu5Ac(a2-3)]Gal(b1-4)Glc
# How it was run: as §1
# [8] = molecular target: Fuc(a1-2)Gal(b1-3)GlcNAc
# How it was run: as §1
# [9] = molecular target: Fuc(a1-2)Gal(b1-3)GlcNAc(b1-2)Man(a1-3)[Fuc(a1-2)Gal(b1-3)GlcNAc(b1-2)Man(a1-6)]Man(b1-4)GlcNAc(b1-4)GlcNAc
# How it was run: as §1
# [10] = molecular target: Fuc(a1-2)Gal(b1-3)GlcNAc(b1-2)Man(a1-3)[Fuc(a1-2)Gal(b1-3)GlcNAc(b1-2)Man(a1-6)]Man(b1-4)GlcNAc(b1-4)[Fuc(a1-6)]GlcNAc
# How it was run: as §1
# [11] = molecular target: Fuc(a1-2)Gal(b1-3)GlcNAc(b1-3)Gal(b1-4)Glc
# How it was run: as §1
# [12] = molecular target: Fuc(a1-2)Gal(b1-3)GlcNAc(b1-3)GalNAc
# How it was run: as §1
# [13] = molecular target: Fuc(a1-2)Gal(b1-3)GlcNAc(b1-3)[Fuc(a1-2)Gal(b1-3)GlcNAc(b1-6)]GalNAc
# How it was run: as §1
# [14] = molecular target: Fuc(a1-2)Gal(b1-3)GlcNAc(b1-3)[Gal(b1-4)GlcNAc(b1-6)]Gal(b1-4)Glc
# How it was run: as §1
# [15] = molecular target: Fuc(a1-2)Gal(b1-3)GlcNAc(b1-3)[Neu5Ac(a2-6)Gal(b1-4)GlcNAc(b1-6)]Gal(b1-4)Glc
# How it was run: as §1
# [16] = molecular target: Fuc(a1-2)Gal(b1-3)GlcNAc6S
# How it was run: as §1
# [17] = molecular target: Fuc(a1-2)Gal(b1-3)[Fuc(a1-4)]GlcNAc
# How it was run: as §1
# [18] = molecular target: Fuc(a1-2)Gal(b1-3)[Fuc(a1-4)]GlcNAc(b1-2)Man(a1-3)[Fuc(a1-2)Gal(b1-3)[Fuc(a1-4)]GlcNAc(b1-2)Man(a1-3)]Man(b1-4)GlcNAc(b1-4)GlcNAc
# How it was run: as §1
# [19] = molecular target: Fuc(a1-2)Gal(b1-3)[Fuc(a1-4)]GlcNAc(b1-2)Man(a1-3)[Fuc(a1-2)Gal(b1-3)[Fuc(a1-4)]GlcNAc(b1-2)Man(a1-6)]Man(b1-4)GlcNAc(b1-4)[Fuc(a1-6)]GlcNAc(b1-4)[Fuc(a1-6)]GlcNAc
# How it was run: as §1
# [20] = molecular target: Fuc(a1-2)Gal(b1-3)[Fuc(a1-4)]GlcNAc(b1-3)[Fuc(a1-3)[Gal(b1-4)]GlcNAc(b1-6)]Gal(b1-4)Glc
# How it was run: as §1
# [21] = molecular target: Fuc(a1-2)Gal(b1-3)[Fuc(a1-4)]GlcNAc(b1-3)[Gal(b1-4)GlcNAc(b1-6)]Gal(b1-4)Glc
# How it was run: as §1
# [22] = molecular target: Fuc(a1-2)Gal(b1-4)Fuc(a1-3)]GlcNAc(b1-2)Man(a1-3)[Fuc(a1-2)Gal(b1-4)[Fuc(a1-3)]GlcNAc(b1-2)Man(a1-6)]Man(b1-4)GlcNAc(b1-4)GlcNAc
# How it was run: as §1
# [23] = molecular target: Fuc(a1-2)Gal(b1-4)Glc
# How it was run: as §1
# [24] = molecular target: Fuc(a1-2)Gal(b1-4)Glc6S
# How it was run: as §1
# [25] = molecular target: Fuc(a1-2)Gal(b1-4)GlcNAc
# How it was run: as §1
# [26] = molecular target: Fuc(a1-2)Gal(b1-4)GlcNAc(b1-2)Man
# How it was run: as §1
# [27] = molecular target: Fuc(a1-2)Gal(b1-4)GlcNAc(b1-2)Man(a1-3)[Fuc(a1-2)Gal(b1-4)GlcNAc(b1-2)Man(a1-6)]Man(b1-4)GlcNAc(b1-4)GlcNAc
# How it was run: as §1
# [28] = molecular target: Fuc(a1-2)Gal(b1-4)GlcNAc(b1-2)Man(a1-3)[Fuc(a1-2)Gal(b1-4)GlcNAc(b1-2)Man(a1-6)]Man(b1-4)GlcNAc(b1-4)[Fuc(a1-6)]GlcNAc
# How it was run: as §1
# [29] = molecular target: Fuc(a1-2)Gal(b1-4)GlcNAc(b1-2)[Fuc(a1-2)Gal(b1-4)GlcNAc(b1-4)]Man(a1-3)[Fuc(a1-2)Gal(b1-4)GlcNAc(b1-2)Man(a1-6)]Man(b1-4)GlcNAc(b1-4)GlcNAc
# How it was run: as §1
# [30] = molecular target: Fuc(a1-2)Gal(b1-4)GlcNAc(b1-3)Gal(b1-4)GlcNAc
# How it was run: as §1
binder,measurement,setting,value
B1,glycan array binding signal (z-score),[1],-0.291
same,glycan array binding signal (z-score),[2],-0.261
same,glycan array binding signal (z-score),[3],-0.468
same,glycan array binding signal (z-score),[4],-0.261
same,glycan array binding signal (z-score),[5],-0.263
same,glycan array binding signal (z-score),[6],-0.125
same,glycan array binding signal (z-score),[7],-0.248
same,glycan array binding signal (z-score),[8],-0.164
same,glycan array binding signal (z-score),[9],0.535
same,glycan array binding signal (z-score),[10],0.521
same,glycan array binding signal (z-score),[11],-0.36
same,glycan array binding signal (z-score),[12],-0.299
same,glycan array binding signal (z-score),[13],0.223
same,glycan array binding signal (z-score),[14],-0.111
same,glycan array binding signal (z-score),[15],-0.165
same,glycan array binding signal (z-score),[16],-0.278
same,glycan array binding signal (z-score),[17],-0.348
same,glycan array binding signal (z-score),[18],0.247
same,glycan array binding signal (z-score),[19],0.449
same,glycan array binding signal (z-score),[20],-0.443
same,glycan array binding signal (z-score),[21],-0.309
same,glycan array binding signal (z-score),[22],0.164
same,glycan array binding signal (z-score),[23],-0.242
same,glycan array binding signal (z-score),[24],0.055
same,glycan array binding signal (z-score),[25],0.832
same,glycan array binding signal (z-score),[26],-0.034
same,glycan array binding signal (z-score),[27],0.791
same,glycan array binding signal (z-score),[28],0.262
same,glycan array binding signal (z-score),[29],0.53
same,glycan array binding signal (z-score),[30],1.56
